Assay results published in PubChem BioAssay AID1919000 (Molecular Pharmacology Branch, DTP, NCI, 2023).
For part of its entries the source gives two or more results. They are shown here; other results are not. The source may hold further records. Values given together repeat one measurement in other runs, samples, wells, individuals or studies. Additions like (4×) give the number of equal values in this list. Dates in brackets are months of testing.

System: 653999-131-R-J2-PDC complex spheroids, growth % test/control
Test: Anticancer human tumor 653999-131-R-J2-PDC patient-derived lung adenocarcinoma cell line growth inhibition [AhR]
Conditions: for viability, T/C: stronger effect = lower value; for IC50: compound alone
Text: Multicellular complex tumor spheroid response to aryl hydrocarbon receptor antagonists in combination with a variety of drugs and investigational agents in selected tumor cell lines
The current study was undertaken to assess response to aryl hydrocarbon receptor antagonists in combination with standard-of-care drugs and investigational agents in solid tumor complex spheroid models. Complex spheroids include a stromal component modeled by human endothelial cells (HUVEC) and fibroblasts modeled by human mesenchymal stem cells (MSCs). The concentration ranges selected for each drug and investigational agent were based upon clinically achievable concentrations if the clinical Cmax of the agent was known.
Compounds. The drugs and investigational agents: BAY 2416964 (NSC825713), GNF351 (NSC835774), CH-223191 (NSC835775), CPI-455 (NSC825282), aza-TdCyd (NSC777586), decitabine (NSC127716), belinostat (NSC758774), entinostat (NSC756642), pevonedistat (NSC761192), tazemetostat (NSC777109), talazoparib (NSC765396), olaparib (NSC753686), selinexor (NSC780203), nedisertib (M3814, NSC802822), bortezomib (NSC756655), venetoclax (NSC766270), doxorubicin (NSC123127), elimusertib (BAY189344, NSC800525), ceralasertib (AZD6738, NSC777638), TAK-243 (NSC785004), alisertib (NSC759677), etoposide (NSC141540), topotecan (NSC609699), eribulin (NSC707389), gemcitabine (NSC613327), carboplatin (NSC241240), cisplatin (NSC119875), and SN-38 (NSC673596) were obtained from the National Cancer Institute (NCI) Developmental Therapeutics Program Chemical Repository (32). The FDA-approved anticancer drug set is available from the Developmental Therapeutics Program at https://dtp.cancer.gov/organization/dscb/obtaining/available plates.htm. […] The stock solutions were prepared in dimethyl sulfoxide (DMSO, Sigma-Aldrich, St. Louis, MO, cat. D2650), except for the platinum compounds which were prepared in saline (Quality Biological, Gaithersburg, MD, cat. 114-055-101), at 800-fold the tested concentration and stored at -70 degrees C prior to their use. All drugs and investigational agents were tested over a range starting from a high concentration at or near the clinical Cmax and decreasing in half-log increments. If the clinical Cmax for an agent had not been determined, the highest concentration tested was 10 microM (Table 1).
Cell Culture. All cells were maintained in an incubator at 37 degrees C and 5% CO2 with 95% humidity. The PDC lines were cultured according to standard operating procedures established by the NCI PDMR (https://pdmr.cancer.gov). Briefly, all PDCs were thawed and cultured in Matrigel-coated flasks prepared with a working solution of 1X Ham's F-12 nutrient mix, without supplementation (Invitrogen, Waltham, MA, cat. 11765054), 100 U/mL penicillin-streptomycin (Invitrogen, cat. 15140122), and 2.5% Matrigel (Corning Inc., Corning, NY, cat. 354248) for the first three passages. All PDCs were cultured in complete DMEM/F-12 media containing advanced DMEM/F-12 (Invitrogen, cat. 12634028), 4.9% defined fetal bovine serum, heat inactivated (HyClone Laboratories Inc., Logan, UT, cat. SH30070.03HI), 389 ng/mL hydrocortisone (Sigma-Aldrich, cat. H4001), 9.7 ng/mL human EGF recombinant protein (Invitrogen, cat. PHG0313), 23.4 microg/mL adenine (Sigma-Aldrich, cat. A2786), 97.3 U/mL penicillin-streptomycin (Invitrogen, cat. 15140122), 1.9 mM L-glutamine (Invitrogen, cat. 25030081), and 9.7 microM Y-27632 dihydrochloride (Tocris Bioscience, Bristol, United Kingdom, cat. 1254). The PDCs were cultured in complete DMEM/F12 media without 10 microM Y-27632 dihydrochloride for at least two passages prior to the screen. The established cell lines NCI-H1341 and […] were cultured in DMEM/F-12, HEPES (Invitrogen, cat. 11330032), 5% defined fetal bovine serum (HyClone Laboratories Inc., cat. SH30070.03), ITS premix universal culture supplement [insulin (5 microg/mL), transferrin (5 microg/mL), and selenious acid (5 ng/mL)] […]
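Note: spheroids exposed to agents for seven days.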

Q: `Cc1ccccc1N=Nc1ccc(NC(=O)c2ccnn2C)c(C)c1` was tested. Which viability, T/C (compound alone 0.316 µM) did it give?
A: 94, 93, 95.8, 101, 96, 103, 95.5, 99.1, 92.2, 92.5, 93.7, 91.8, 100, 89.5, 96.4, 81.9, 87.5, 102, 99.2, 108%

Q: What about the viability, T/C (compound alone 3.16 µM) of the same compound?
A: 97.2, 77.7, 87.6, 104, 88.8, 94.3, 90.2, 101 (2×), 92, 82, 85.4, 81.2, 103, 94.6, 89.7, 98, 85.8, 106, 97.1%

Q: What about the viability, T/C (compound alone 10 µM) of the same compound?
A: 92.2, 84.8, 84.3, 107 (2×), 92.8, 89.5, 84.4, 89.8, 85.7, 79.8, 91.1, 75.2, 96.4, 81.9, 82.4, 99.3, 76, 102, 87.5, 98.9%

Q: What does the source list for `CC(CO)NC(=O)c1cc(-c2ccc(Cl)cc2)nn(-c2cnn(C)c2)c1=O` (stereo not given)?
A: viability, T/C (compound alone 0.316 µM): 104 (2×), 110, 97.5, 91.7, 98.2, 96.3, 91.2, 90.8, 89.8, 93, 105, 94.3 (2×), 78.3, 91, 102, 101, 89.7, 92.4, 94.5%; viability, T/C (compound alone 1 µM): 92.1, 102, 95.8, 92, 91.7, 94.9, 98.7, 83.2, 98.4, 108, 114, 81, 86.9, 91.9, 91.8, 106 (2×), 99.5, 87.9, 89, 77.8%; viability, T/C (compound alone 3.16 µM): 109, 116 (2×), 85.6, 102, 92.6, 93.5, 98.5 (2×), 95.4, 96.5, 87.7, 101, 106, 111, 122, 86.6, 119, 90.4%; viability, T/C (compound alone 10 µM): 99.2, 99.9, 85.1, 115, 107 (2×), 87.7, 83.1, 87.3, 123, 94.2, 89.5, 105 (2×), 99.7, 114, 127, 89.3, 83%

Q: With `Cc1cncc(-c2nc(NCCc3c[nH]c4ccccc34)c3ncn(C(C)C)c3n2)c1` as the compound, how does the viability, T/C (compound alone 3.16 µM) read?
A: 94.7, 96, 107 (2×), 105 (2×), 99.8, 102, 118, 92.1, 112, 103, 106 (3×), 104, 121, 81, 101, 109%

Q: What about the IC50 (run of 06/06/2022) of the same compound?
A: 9.17 µM, > 10 µM, 9.42 µM, 9.88 µM, 9.87 µM, 9.7 µM, 9.99 µM, 9.58 µM, 8.38 µM

Q: Which IC50 does the source give for `Nc1ccn(C2OC(CO)C(O)C2(F)F)c(=O)n1` (stereo not given) here?
A: 4.08 µM [2022-05] and 379 nM, 460 nM [2022-06]
